How the values were obtained:
[1] = target: T1, human PCSK9 (SEQ ID NO: 34) containing a C-terminal FLAG tag (human, UniProt Q8NBP7 31-152; Q8NBP7 153-692); assay: cell-based or functional assay
[2] = target: T1, human PCSK9 (SEQ ID NO: 34) containing …; assay: binding ELISA, biotinylated PCSK9 on Neutravidin plate
[3] = target: T2, gain of function hPCSK9_D374Y mutant (human, UniProt Q8NBP7 31-152; Q8NBP7 153-692); assay: as above
T2 construct: also called human PCSK9_D374Y; not shown: FLAG tag

mouse PCSK9 [4] = target: T3, mouse PCSK9 (mouse, UniProt Q80W65 35-694, limits assumed); assay: as above
T3 construct: biotinylated in the assays; also called mPCSK9

[5] = target: T1, human PCSK9 (SEQ ID NO: 34) containing …; assay: SPR (Biacore T200), biotinylated PCSK9 captured, 1:1 model
[6] = target: T1, human PCSK9 (SEQ ID NO: 34) containing …; assay: competition ELISA, 25 nM hPCSK9 pre-incubated with mutein, LDL-R-coated plate
[7] = target: T2, gain of function hPCSK9_D374Y mutant; assay: competition ELISA, 0.25 nM hPCSK9_D374Y pre-incubated with mutein, LDL-R-coated plate
[8] = target: T1, human PCSK9 (SEQ ID NO: 34) containing …; assay: cell-based or functional assay; remark: listed apart in the source
[9] = target: T1, human PCSK9 (SEQ ID NO: 34) containing …; assay: competition ECL assay, 10 pM hPCSK9-Bio, plate coated with benchmark antibody (SEQ ID NOs: 29 and 33) as competitor
[10] = target: T1, human PCSK9 (SEQ ID NO: 34) containing …; assay: SPR (Biacore T200), hPCSK9-Bio captured, 1:1 model
[11] = target: T1, human PCSK9 (SEQ ID NO: 34) containing …; assay: SPR (Biacore T200), biotinylated PCSK9 captured, 1:1 model; remark: listed apart in the source
mouse PCSK9 [12] = target: T3, mouse PCSK9; assay: as above
T3 sequence (Q80W65 35-694 limits assumed): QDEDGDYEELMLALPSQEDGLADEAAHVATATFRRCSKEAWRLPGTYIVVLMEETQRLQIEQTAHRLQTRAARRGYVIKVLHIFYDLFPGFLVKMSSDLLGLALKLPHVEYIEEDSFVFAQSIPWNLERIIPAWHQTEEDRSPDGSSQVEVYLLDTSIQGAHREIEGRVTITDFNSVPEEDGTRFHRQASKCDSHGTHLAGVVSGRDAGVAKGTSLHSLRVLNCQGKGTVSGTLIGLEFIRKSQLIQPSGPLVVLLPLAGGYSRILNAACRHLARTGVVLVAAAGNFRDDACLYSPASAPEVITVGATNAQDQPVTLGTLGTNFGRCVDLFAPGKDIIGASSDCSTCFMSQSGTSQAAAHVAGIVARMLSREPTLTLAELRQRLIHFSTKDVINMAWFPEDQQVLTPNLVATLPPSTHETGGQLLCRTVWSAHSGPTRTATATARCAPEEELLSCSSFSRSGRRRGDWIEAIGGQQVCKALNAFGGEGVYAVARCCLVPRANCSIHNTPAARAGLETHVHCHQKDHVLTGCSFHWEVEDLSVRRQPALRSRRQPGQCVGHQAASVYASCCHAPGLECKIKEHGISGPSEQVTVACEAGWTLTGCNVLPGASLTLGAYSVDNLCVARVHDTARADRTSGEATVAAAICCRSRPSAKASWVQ

[13] = target: T1, human PCSK9 (SEQ ID NO: 34) containing …; assay: SPR (Biacore T200), biotinylated human PCSK9 captured, 1:1 model

B1: lipocalin mutein SEQ ID NO: 3 (designed binder)
chain: ASDEEIQDVSGTWYLKAMTVDFSRGDAIWTSVTPMTLTTLEGGNLEAKVTMMYAGRSQEVKAVLEKTDEPGKYTAMGGSHVAYIIRSHVKDHYIFYSEGPYQGAPVPGVWLVGRDPKNNLEALEDFEKAAGARGLSTESILIPRQSETSSPGSAWSHPQFEK
notes: human tear lipocalin mutein
In the case of B1, the “IC50, restoration of labeled LDL uptake in HepG2 cells with 100 nM hPCSK9” value (“IC50, restoration of labeled LDL uptake” for short) [1] is reported as 71.8 nM, the EC50 [2] is reported as 1.6 nM and the EC50 [3] is reported as 1.2 nM. The EC50 (mouse PCSK9 [4]) was 4.4 nM, the Kd [5] was 0.85 nM and the koff [5] was 0.00015 s⁻¹. The kon [5] was 177000 M⁻¹ s⁻¹, the IC50 [6] was 13.8 nM and the IC50 [7] was 0.13 nM.

B2: PEGylated lipocalin mutein variant SEQ ID NO: 31 (designed binder)
chain: ASDEEIQDVSGTWYLKAMTVDFSRGDAIWTSVTPMTLTTLEGGNLEAKVTMMYAGRSQEVKAVLERTDEPGKYTTMGGSHVAYIIRSPVKDHYIFYSEGPHQGAPVPGVWLVGRDPKNNLEALEDFEKAAGARGLSTESILIPRQSETSSPGSAWSHPQFEK
modifications: branched PEG40 conjugated; residue not stated
With B2 the “IC50, LDL-R depletion assay on HepG2 cells with 100 nM PCSK9” value (“IC50, LDL-R depletion assay” for short) [8] was 82.6 nM, the “IC90, LDL-R depletion assay on HepG2 cells with 100 nM PCSK9” value (“IC90, LDL-R depletion assay” below) [8] was 173 nM and the IC50 [9] was 0.53 nM.

B3: PEGylated lipocalin mutein variant SEQ ID NO: 32 (designed binder)
chain: ASDEEIQDVSGTWYLKAMTVDFSRGDAIWTSVTPMTLTTLEGGNLEAKVTMMYAGRSQEVKAVLEKTDEPGKYTVMGGSHVASIIRSHVKDHYIFYPEGPYQGAPVPGVWLVGRDPKNNLEALEDFEKAAGARGLSTESILIPRQSETSSPGSAWSHPQFEK
modifications: branched PEG40 conjugated; residue not stated
For B3, the “IC50, LDL-R depletion assay” value [8] was 70.7 nM, the “IC90, LDL-R depletion assay” value [8] was 148 nM and the IC50 [9] was 0.37 nM.

B4: lipocalin mutein SEQ ID NO: 13 (designed binder)
chain: ASDEEIQDVSGTWYLKAMTVDFSRGDAIWTSVTPMTLTTLEGGNLEAKVTMMYAGRSQEVKAVLERTDEPGKYTTMGGSHVAYIIRSPVKDHYIFYSEGPHQGAPVPGVWLVGRDPKNNLEALEDFEKAAGARGLSTESILIPRQSETSSPGSAWSHPQFEK
notes: human tear lipocalin mutein
For B4, the “IC50, LDL-R depletion assay” value [8] was 103 nM, the “IC90, LDL-R depletion assay” value [8] was 216 nM and the Kd [10] was 0.32 nM. It also gave a koff [10] of 8.77e-05 s⁻¹, a kon [10] of 275000 M⁻¹ s⁻¹ and a Kd [11] of 0.32 nM. For the same binder, the koff [11] was 8.31e-05 s⁻¹, the kon [11] was 262000 M⁻¹ s⁻¹ and the Kd (mouse PCSK9 [12]) was 1.77 nM. The koff (mouse PCSK9 [12]) was 0.000312 s⁻¹, the kon (mouse PCSK9 [12]) was 176000 M⁻¹ s⁻¹ and the Kd [13] was 0.24 nM. The koff [13] was 6.84e-05 s⁻¹, the kon [13] was 281000 M⁻¹ s⁻¹ and the IC50 [9] was 0.16 nM.

B5: lipocalin mutein SEQ ID NO: 20 (designed binder)
chain: ASDEEIQDVSGTWYLKAMTVDFSRGDAIWTSVTPMTLTTLEGGNLEAKVTMMYAGRSQEVKAVLEKTDEPGKYTVMGGSHVASIIRSHVKDHYIFYPEGPYQGAPVPGVWLVGRDPKNNLEALEDFEKAAGARGLSTESILIPRQSETSSPGSAWSHPQFEK
notes: human tear lipocalin mutein
B5 was tested, and the “IC50, LDL-R depletion assay” value [8] was 91.7 nM, the “IC90, LDL-R depletion assay” value [8] was 192 nM and the Kd [10] was 0.31 nM. It also gave a koff [10] of 9.73e-05 s⁻¹, a kon [10] of 313000 M⁻¹ s⁻¹ and a Kd [11] of 0.31 nM. The koff [11] was 7.79e-05 s⁻¹, the kon [11] was 249000 M⁻¹ s⁻¹ and the Kd (mouse PCSK9 [12]) was 1.98 nM. It also gave a koff (mouse PCSK9 [12]) of 0.000351 s⁻¹, a kon (mouse PCSK9 [12]) of 177000 M⁻¹ s⁻¹ and an IC50 [9] of 0.11 nM.

B6: PEGylated lipocalin mutein variant SEQ ID NO: 30 (designed binder)
chain: ASDEEIQDVSGTWYLKAMTVDRFKIASWPRSVTPMTLTTLEGGNLEAKVTMNWWGRSQEVKAVLERTDEPGKYTAQGDRHVAYIIRSHVKDHYIFYSEGNLQGETVPGVWLVGRDPKNNLEALEDFEKAAGARGLSTESILIPRQSETSSPGSAWSHPQFEK
modifications: branched PEG40 conjugated; residue not stated
With B6 the “IC50, LDL-R depletion assay” value [8] was 82.6 nM, the “IC90, LDL-R depletion assay” value [8] was 173 nM and the IC50 [9] was 0.19 nM.

B7: lipocalin mutein SEQ ID NO: 7 (designed binder)
chain: ASDEEIQDVSGTWYLKAMTVDRFKIASWPRSVTPMTLTTLEGGNLEAKVTMNWWGRSQEVKAVLEKTDEPGKYTAQGGSHVAYIIRSHVKDHYIFYSEGNRQGDPVPGVWLVGRDPKNNLEALEDFEKAAGARGLSTESILIPRQSETSSPGSAWSHPQFEK
notes: human tear lipocalin mutein
B7 was tested, and the “IC50, restoration of labeled LDL uptake” value [1] was 95.8 nM, the EC50 [2] was 2.8 nM and the EC50 [3] was 0.8 nM. For the same binder, the EC50 (mouse PCSK9 [4]) was 16.3 nM, the Kd [5] was 6.69 nM and the koff [5] was 0.00484 s⁻¹. The kon [5] was 724000 M⁻¹ s⁻¹, the IC50 [6] was 13.2 nM and the IC50 [7] was 0.13 nM.

B8: lipocalin mutein SEQ ID NO: 22 (designed binder)
chain: ASDEEIQDVSGTWYLKAMTVDRFKIASWPRSVTPMTLTTLEGGNLEAKVTMNWWGRSQEVKAVLERTDEPGKYTAQGDRHVAYIIRSHVKDHYIFYSEGNLQGETVPGVWLVGRDPKNNLEALEDFEKAAGARGLSTESILIPRQSETSSPGSAWSHPQFEK
notes: human tear lipocalin mutein
B8 was tested, and the “IC50, LDL-R depletion assay” value [8] was 76.9 nM, the “IC90, LDL-R depletion assay” value [8] was 161 nM and the Kd [10] was 0.35 nM. For the same binder, the koff [10] was 0.000263 s⁻¹, the kon [10] was 753000 M⁻¹ s⁻¹ and the Kd [11] was 0.39 nM. The koff [11] was 0.000258 s⁻¹, the kon [11] was 663000 M⁻¹ s⁻¹ and the Kd (mouse PCSK9 [12]) was 1.99 nM. It also gave a koff (mouse PCSK9 [12]) of 0.000638 s⁻¹, a kon (mouse PCSK9 [12]) of 321000 M⁻¹ s⁻¹ and a Kd [13] of 0.37 nM. It also gave a koff [13] of 0.000219 s⁻¹, a kon [13] of 591000 M⁻¹ s⁻¹ and an IC50 [9] of 0.09 nM.

B9: lipocalin mutein SEQ ID NO: 4 (designed binder)
chain: ASDEEIQDVSGTWYLKAMTVDWQCDTGLWTSVTPMTLTTLEGGNLEAKVTMSYAGAFQEVKAVLEKTDEPGKYTADGGKHVAYIIRSHVKDHYIFYSEGECGGWPVPGVWLVGRDPKNNLEALEDFEKAAGARGLSTESILIPRQSETSSPGSAWSHPQFEK
notes: human tear lipocalin mutein
For B9, the “IC50, restoration of labeled LDL uptake” value [1] was 85.8 nM, the EC50 [2] was 2.4 nM and the EC50 [3] was 1.6 nM. For the same binder, the EC50 (mouse PCSK9 [4]) was 21.8 nM, the Kd [5] was 2.89 nM and the koff [5] was 0.000139 s⁻¹. It also gave a kon [5] of 47900 M⁻¹ s⁻¹, an IC50 [6] of 6.2 nM and an IC50 [7] of 0.37 nM.

B10: lipocalin mutein SEQ ID NO: 12 (designed binder)
chain: ASDEEIQDVSGTWYLKAMTLDWQCDTGLWTSVTPMTLTTLEGGNLEAKVTMSYAGAFQEVKAVLEKTDEPGKYTADGGKHVAYIIRSHVKDHYIFYSEGECGGWPVPGVWLVGRDPKNNLEALEDFEKAAGARGLSTESILIPRQSETSSPGSAWSHPQFEK
notes: human tear lipocalin mutein
Work on B10 yielded a Kd [5] of 6.4 nM, a koff [5] of 0.000156 s⁻¹ and a kon [5] of 24400 M⁻¹ s⁻¹.

B11: lipocalin mutein SEQ ID NO: 6 (designed binder)
chain: ASDEEIQDVSGTWYLKAMTVDFTDNSPMFTSVTPMTLTTLEGGNLEAKVTMQYAGRSQEVKAVLEKTDEPGKYTAIGGTHVAYIIRSHVKDHYIFYSEGAERGRPVPGVWLVGRDPKNNLEALEDFEKAAGARGLSTESILIPRQSETSSPGSAWSHPQFEK
notes: human tear lipocalin mutein
B11 was tested, and the “IC50, restoration of labeled LDL uptake” value [1] was 44.5 nM, the EC50 [2] was 3.1 nM and the EC50 [3] was 2.1 nM. It also gave an EC50 (mouse PCSK9 [4]) of 20.1 nM, a Kd [5] of 4.1 nM and a koff [5] of 0.000232 s⁻¹. It also gave a kon [5] of 56600 M⁻¹ s⁻¹, an IC50 [6] of 10.1 nM and an IC50 [7] of 0.21 nM.

B12: lipocalin mutein SEQ ID NO: 9 (designed binder)
chain: ASDEEIQDVSGTWYLKAMTVDTEHLADWANSVTPMTLTTLEGGNLEAKVTMHQPGRSQEVKAVLEKTDEPGKYTAIGGSHVAYIIRSHVKDHYIFYSEGAYPGSPVPGVWLVGRDPKNNLEALEDFEKAAGARGLSTESILIPRQSETSSPGSAWSHPQFEK
notes: human tear lipocalin mutein
B12 was tested, and the EC50 [2] was 5.6 nM, the EC50 [3] was 1.1 nM and the EC50 (mouse PCSK9 [4]) was 16.2 nM. The Kd [5] was 20.6 nM, the koff [5] was 0.0048 s⁻¹ and the kon [5] was 233000 M⁻¹ s⁻¹.

B13: lipocalin mutein SEQ ID NO: 10 (designed binder)
chain: ASDEEIQDVSGTWYLKAMTVDRADMGDWPNSVTPMTLTTLEGGNLEAKVTMFTRGRSQEVKAVLEKTDEPGKYTATGGEHVAYIIRSHVKDHYIFYSEGTLTGRPVPGVWLVGRDPKNNLEALEDFEKAAGARGLSTESILIPRQSETSSPGSAWSHPQFEK
notes: human tear lipocalin mutein
B13 was tested, and the Kd [5] was 12.6 nM, the koff [5] was 0.00719 s⁻¹ and the kon [5] was 570000 M⁻¹ s⁻¹.

B14: lipocalin mutein SEQ ID NO: 5 (designed binder)
chain: ASDEEIQDVSGTWYLKAMTVDHEWNGHYYTSVTPMTLTTLEGGNLEAKVTMSYRGRSQEVKAVLEKTDEPGKYTAPGGQHVAYIIRSHVKDHYIFYSEGSWPGYPVPGVWLVGRDPKNNLEALEDFEKAAGARGLSTESILIPRQSETSSPGSAWSHPQFEK
notes: human tear lipocalin mutein
Work on B14 yielded an EC50 [2] of 5.1 nM, an EC50 [3] of 2.9 nM and an EC50 (mouse PCSK9 [4]) of 30 nM. For the same binder, the Kd [5] was 4.8 nM, the koff [5] was 0.000163 s⁻¹ and the kon [5] was 34000 M⁻¹ s⁻¹.
